# Experimental data taken from PubChem BioAssay AID2451 (National Center for Advancing Translational Sciences (NCATS), 2010).
# In all, about 290,000 compounds went through this assay and about 2,100 (0.72%) were called active. The inconclusive results got no clear call from the source; some entries with a clear call stand among them for comparison. Calls come from the whole dose curve; as a rule, active = well fitted inhibition curve with a large enough effect; inconclusive = small, poorly fitted or top-dose-only effect, or effect the other way; inactive = flat fitted curve, though single readings scatter. Potencies beside an inconclusive call are fits to weak or partial responses and may not hold up.
# Target: Fructose-bisphosphate aldolase (Giardia intestinalis (strain ATCC 50803 / WB clone C6)) (UniProt A8B2U2)
# Chain of UniProt A8B2U2 (A8B2U2 whole entry, looked up): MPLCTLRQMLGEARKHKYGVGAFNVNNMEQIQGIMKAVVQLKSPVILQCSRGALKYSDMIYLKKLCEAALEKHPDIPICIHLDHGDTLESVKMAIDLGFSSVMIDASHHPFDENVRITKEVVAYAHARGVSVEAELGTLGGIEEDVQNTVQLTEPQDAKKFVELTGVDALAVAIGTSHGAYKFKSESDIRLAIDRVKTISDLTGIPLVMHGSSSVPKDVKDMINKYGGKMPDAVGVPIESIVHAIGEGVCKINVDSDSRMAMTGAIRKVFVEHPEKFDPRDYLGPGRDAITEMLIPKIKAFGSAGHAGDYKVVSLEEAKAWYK
# Assay: qHTS Assay for Inhibitors of Fructose-1,6-bisphosphate Aldolase from Giardia Lamblia; note: nearly all actives have a fitted effect of over 55% in size
# Conditions: purified Giardia FBPA; activity, negative = inhibition: at 59.6 µM (top of the series) unless noted
# Outline: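 Giardia FBPA (40 nM reagent) was preincubated 10 min at RT with compound (up to 57.5 uM final), then substrate plus GAPDH/TPI/NAD/arsenate coupling system with diaphorase/resazurin was added; resorufin fluorescence (525/598 nm) was read after 20 min.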
# % is set by controls: 0 for no effect and ±100 for the full control effect; potency is the fitted concentration of half-maximal effect; tags give direction and shape of the fitted curve.
Structure (SMILES),Potency,"activity, negative = inhibition"
O=C(O)c1cnc(-c2ccccc2)nc1Sc1ccc(Cl)cc1,"inconclusive: 17.7 µM [activator, single point]",–
COc1cccc(CNc2ccc(N3CCCCC3)cc2)c1OC,"inconclusive: 17.7 µM [inhibitor, partial curve, poor fit]",–
COc1ccc(S(=O)(=O)N(n2c(C)nnc2-n2nc(C)cc2C)S(=O)(=O)c2ccc(OC)cc2)cc1,"inconclusive: 5.61 µM [inhibitor, single point]",–
CC(C)(C)C(=O)N(Cc1ccc(Cl)cc1)c1cnccn1,–,inactive: 0.592%
N#CC1=C(N)Oc2n[nH]c(-c3cccs3)c2C1c1cccs1 (stereo unspecified),"inconclusive: 12.6 µM [inhibitor, partial curve]",–
COc1ccc(OC)c(C2=Nn3c(nnc3-c3cc(OC)c(OC)c(OC)c3)SC2)c1,"inconclusive: 15.8 µM [inhibitor, partial curve]",–
CN(C)CC(C)(C)CNC(=O)C1CCN(CCCc2ccccc2)CC1,"inconclusive: 20 µM [inhibitor, partial curve]",–
OCCN1CCN(CC(O)COC(c2ccc(F)cc2)c2ccc(F)cc2)CC1 (stereo unspecified),"inconclusive: 15.8 µM [inhibitor, partial curve]",–
CCOC(=O)c1c(-c2ccc(OC)cc2)csc1NC(=O)CNCc1ccco1,"inconclusive: 35.4 µM [inhibitor, single point]",–
Cc1cc(C(=O)Cn2nnc(-c3ccc(Cl)cc3)n2)c(C)n1CC1CCCO1 (stereo unspecified),–,inactive: 0.564%
COC(=O)c1ccccc1OCCCCN1CC(C)OC(C)C1 (stereo unspecified),"inconclusive: 22.3 µM [inhibitor, partial curve]",–
CC(=O)NNC(=O)c1csc(-c2csc(C)n2)n1,"inconclusive: 15.8 µM [inhibitor, partial curve]",–
CCN(Cc1ccccc1)C1CCN(Cc2ccccc2)CC1,"inconclusive: 28.2 µM [inhibitor, partial curve]",–
C/C(CC1CC(COCCC(C)C)OC1=O)=N\NC(N)=S (stereo unspecified),"inconclusive: 17.7 µM [inhibitor, single point]",–
Cc1ccnc2nc(C(=O)Nc3nnc(-c4ccc(Cl)cc4)o3)nn12,"inconclusive: 15.8 µM [inhibitor, single point]",–
CCOc1cc(C2C(C#N)=C(N)SC(N)=C2C#N)ccc1OCCN1CCOCC1,"inconclusive: 7.06 µM [inhibitor, partial curve]",–
CCOc1cc(O)c(-c2[nH]ncc2-c2nc(C)cs2)cc1CC,–,inactive: -24.8%
O=S(=O)(CCc1nc2ccccc2o1)c1ccc2ccccc2c1,–,inactive: -6.05%
COc1ccc(S(=O)(=O)n2cnc3ccccc32)cc1OC,"inconclusive: 31.6 µM [inhibitor, single point]",–
Cc1ccc(C(=O)CSc2n[nH]c(C)n2)cc1,"inconclusive: 17.7 µM [inhibitor, partial curve]",–
CCCN1CCc2cccc3c2C1Cc1ccc(O)c(O)c1-3 (stereo unspecified),active: 12.6 µM,–
COC(=O)CSc1nc(N)c(NC(=O)c2ccc(OC)c(OC)c2)c(=O)[nH]1,"inconclusive: 22.3 µM [inhibitor, single point]",–
C=CCn1c(SCc2cc([N+](=O)[O-])cc3c2OCOC3)nc2cc(C(=O)O)ccc2c1=O,"inconclusive: 15.8 µM [activator, single point]",–

Structure (SMILES),Potency,"activity, negative = inhibition"
Cc1sc2ncnc(N(C)CCc3ccccn3)c2c1C,"inconclusive: 14.1 µM [inhibitor, partial curve]",–
Cc1ccc2nc(Cl)c(/C=N/Nc3nc(C)cc(C)n3)c(=O)n2c1,"inconclusive: 12.6 µM [inhibitor, partial curve]",–
COc1ccsc1C(=O)Nc1ccc(F)cc1F,–,inactive: 2.81%
COc1cc(OC)c(-n2cc(-c3ccc(Cl)cc3)[nH]c2=O)cc1Cl,"inconclusive: 3.15 µM [inhibitor, full curve, poor fit]",–
Cc1ccc(Cl)cc1NC1=C/C(=N\S(=O)(=O)c2cccs2)c2ccccc2C1=O,active: 0.281 µM,–
Cc1cc2c(C)cc(=O)[nH]c2cc1NC(=O)CCl,–,inactive: -13%
O=C(On1c(-c2ccccc2)nc2ccccc2c1=O)c1ccco1,"inconclusive: 39.8 µM [inhibitor, single point]",–
CCOC(=O)C1CCN(CC(C)(C)NS(=O)(=O)c2ccc(Cl)cc2)CC1,"inconclusive: 12.6 µM [inhibitor, single point]",–
O=C(c1cccc(F)c1)N1CCC2(CCCN(c3ncccn3)C2)CC1,–,inactive: 5.61%
Cc1nn(CCc2nc(-c3ccco3)cs2)c2[nH]c(=O)cc(C(F)(F)F)c12,"inconclusive: 35.4 µM [inhibitor, single point]",–
COc1ccc(/C=N/OCC(=O)N(Cc2ccccc2)c2ccccc2C(=O)O)cc1,"inconclusive: 17.7 µM [activator, single point]",–
O=C(C1CCCN(Cc2ccccc2Br)C1)N1CCCCC1 (stereo unspecified),"inconclusive: 44.6 µM [inhibitor, single point]",–
Cc1ccc(Oc2nc(C(F)(F)F)nc3ccccc23)cc1,–,inactive: -0.639%
O=C(NCc1cccc(C(F)(F)F)c1)c1cccc(S(=O)(=O)NCc2ccccc2)c1,–,inactive: -2.33%
O=C(COC(=O)c1ccccn1)Nc1ccc2c(c1)OCO2,–,inactive: -10.8%
O=C(c1cccc(Cl)c1)N1CCN(CCCc2ccccc2)CC1,active: 12.6 µM,–
CCn1c(SCc2cc(=O)n3ccsc3n2)nc2ccccc21,"inconclusive: 15.8 µM [inhibitor, single point]",–
CNC(=O)c1ccc(-c2sc3nc(N4CCOCC4)c4c(c3c2N)CCCC4)o1,"inconclusive: 14.1 µM [inhibitor, partial curve]",–
CC(C)NC(=S)N/N=C/c1ccc(N2CCOCC2)cc1,–,inactive: -3.96%
CCCn1nnc(NC(=S)NC(=O)c2cccs2)n1,active: 5 µM,–
Cc1cccc(CCNC(=O)C2CCCN(c3cnccn3)C2)c1 (stereo unspecified),–,inactive: -15.7%
O=C(NCCCN1CCc2ccccc2C1)C1CCN(S(=O)(=O)N2CCC3(CC2)OCCO3)CC1,"inconclusive: 19.9 µM [inhibitor, single point]",–
CCOC(=O)c1cc2c(ccn2C)n1CC(=O)Nc1ccc(F)cc1,"inconclusive: 15.8 µM [inhibitor, single point]",–
